Laboratory results taken from US20100273722A1, “MODIFIED MINIATURE PROTEINS” (Yale University, priority 2007, published 2010).

Biological target: chicken c-Src (residues 81-140) SH3 domain-GST fusion protein (chicken), P00523
Experiment: fluorescence polarization, 50 nM labeled peptide, SH3-GST titrated

Kd: 1500 nM
Binder: CGGAPPLPPRNRPR (modifications not checked) [^Flu1, fluorescently labeled analog of Peptide 1]
